Assay results published in US10299477B2 (priority 2015, dated 2019).

What was measured:
Type in all cases: in vivo
Botrytis cinerea = test: Test Example B: Gray mold on tomato; details: for Test B (control value class, gray mold on tomato): in vivo; for Test B control value (gray mold on tomato): preventive, control value class
Text: [Test Example B] Gray Mold on Tomato
Seeds of a test plant (tomato variety: Oogata Fukuju) were planted followed by cultivating until three to five first leaves (true leaves) appeared.

Alternaia brassicicola = test: Test Example C: Alternaria sooty spot on cabbage; details: for Test C (control value class, Alternaria sooty spot on cabbage): in vivo; for Test C control value (Alternaria sooty spot on cabbage): preventive, control value class
Text: [Test Example C] Alternaria Sooty Spot on Cabbage
Seeds of a test plant (cabbage variety: Shikidori) were planted followed by cultivating until the cotyledons extended.

[1] = test system: Blumeria graminis f sp. hordei; test: Test Example D: Powdery mildew on barley; details: for Test D (control value class, powdery mildew on barley): in vivo; for Test D control value (powdery mildew on barley): preventive, control value class
Text: [Test Example D] Powdery Mildew on Barley
After the sprayed dilutions were dried, conidia of Blumeria graminis f sp. hordei were inoculated to the plants by shaking off.

Puccinia recondita = test: Test Example E: Brown rust on wheat; details: for Test E (control value class, brown rust on wheat): in vivo; for Test E control value (brown rust on wheat): preventive, control value class
Text: [Test Example E] Brown Rust on Wheat

Plasmopara viticola = test: Test Example G: Downy mildew on vine; details: for Test G (control value class, downy mildew on vine): 250 ppm, sprayed 2.5 ml/pot before inoculation; for Test G (control value class): 250 ppm spray; for Test G control value (downy mildew on vine): 250 ppm spray (2.5 ml/pot), preventive, control value class
Text: [Test Example G] Downy Mildew on Vine
Seeds of a test plant (grape variety: Neomuscat) were planted followed by cultivating until three to four first leaves appeared. […] After the sprayed dilutions were dried, a zoosporangia suspension (1-2×10^4 zoosporangia/ml) of Plasmopara viticola was inoculated to the plants by spraying.

[2] = evaluated 7-10 days after inoculation
[3] = gray mold on tomato, Botrytis cinerea, 250 ppm spray
[4] = Alternaria sooty spot on cabbage, 250 ppm spray
[5] = powdery mildew on barley, 250 ppm spray
[6] = brown rust on wheat, Puccinia recondita, 250 ppm spray
[7] = downy mildew on vine, Plasmopara viticola, 7-10 days after inoculation
[8] = Gray mold on tomato, control value=100{1-(n/3)}
[9] = Alternaria sooty spot on cabbage, control value=100{1-(n/3)}
[10] = Powdery mildew on barley, control value=100{1-(n/3)}
[11] = Brown rust on wheat, control value=100{1-(n/3)}
[12] = Downy mildew on vine, 2.5 ml/pot, evaluated 7-10 days after inoculation

## COc1ccc(-c2ccc(=O)n(C)c2-c2c(F)cccc2F)c(Cl)c1 [Compound 740]
Botrytis cinerea
  Test B (control value class, gray mold on tomato): H (H shows more than 50% of control values)
Alternaia brassicicola
  Test C (control value class, Alternaria sooty spot on cabbage): H (H shows more than 50% of control values)
[1]
  Test D (control value class, powdery mildew on barley): L (L shows 50% or less of control values)
Puccinia recondita
  Test E (control value class, brown rust on wheat): H (H shows more than 50% of control values)
Plasmopara viticola; [2]
  Test G (control value class, downy mildew on vine): H (H shows more than 50% of control values)

## Cn1c(-c2c(F)cccc2F)c(-c2cccc(Cl)c2F)ccc1=O [Compound 474]
Botrytis cinerea; [3]
  Test B (control value class): H (H shows more than 50% of control values)
Alternaia brassicicola; [4]
  Test C (control value class): H (H shows more than 50% of control values)
[1]; [5]
  Test D (control value class): H (H shows more than 50% of control values)
Puccinia recondita; [6]
  Test E (control value class): H (H shows more than 50% of control values)
Plasmopara viticola; [7]
  Test G (control value class): L (L shows 50% or less of control values)

## CCn1c(-c2c(F)cccc2F)c(-c2cc(OC3CCCC3)ccc2Cl)ccc1=O [Compound 287]
Botrytis cinerea; 250 ppm spray
  Test B control value (gray mold on tomato): H (H shows more than 50% of control values)
Alternaia brassicicola; 250 ppm spray
  Test C control value (Alternaria sooty spot on cabbage): H (H shows more than 50% of control values)
[1]; 250 ppm spray
  Test D control value (powdery mildew on barley): H (H shows more than 50% of control values)
Puccinia recondita; 250 ppm spray
  Test E control value (brown rust on wheat): L (L shows 50% or less of control values)
Plasmopara viticola; 7-10 days after inoculation
  Test G control value (downy mildew on vine): H (H shows more than 50% of control values)

## CCn1c(-c2c(F)cccc2F)c(-c2ccc(OC)cc2Cl)cc(C)c1=O [Compound 741]
Botrytis cinerea
  Test B (control value class, gray mold on tomato): H (H shows more than 50% of control values)
Alternaia brassicicola
  Test C (control value class, Alternaria sooty spot on cabbage): H (H shows more than 50% of control values)
[1]
  Test D (control value class, powdery mildew on barley): H (H shows more than 50% of control values)
Puccinia recondita
  Test E (control value class, brown rust on wheat): H (H shows more than 50% of control values)
Plasmopara viticola; [2]
  Test G (control value class, downy mildew on vine): H (H shows more than 50% of control values)

## CCn1c(-c2c(F)cc(F)cc2F)c(-c2cc(F)cc(F)c2Cl)cc(C)c1=O [Compound 689]
Botrytis cinerea
  Test B (control value class, gray mold on tomato): H (H shows more than 50% of control values)
Alternaia brassicicola
  Test C (control value class, Alternaria sooty spot on cabbage): H (H shows more than 50% of control values)
[1]
  Test D (control value class, powdery mildew on barley): H (H shows more than 50% of control values)
Puccinia recondita
  Test E (control value class, brown rust on wheat): H (H shows more than 50% of control values)
Plasmopara viticola; [2]
  Test G (control value class, downy mildew on vine): H (H shows more than 50% of control values)

## COc1cc(F)c(-c2c(-c3ccc(OC)cc3Cl)ccc(=O)n2C)c(F)c1 [Compound 765]
Botrytis cinerea; [8]
  Test B (control value class): H (H shows more than 50% of control values)
Alternaia brassicicola; [9]
  Test C (control value class): H (H shows more than 50% of control values)
[1]; [10]
  Test D (control value class): L (L shows 50% or less of control values)
Puccinia recondita; [11]
  Test E (control value class): H (H shows more than 50% of control values)
Plasmopara viticola; [12]
  Test G (control value class): H (H shows more than 50% of control values)

## CCn1c(-c2c(F)cccc2F)c(-c2c(F)cccc2Cl)ccc1=O [Compound 385]
Botrytis cinerea; [3]
  Test B (control value class): H (H shows more than 50% of control values)
Alternaia brassicicola; [4]
  Test C (control value class): H (H shows more than 50% of control values)
[1]; [5]
  Test D (control value class): H (H shows more than 50% of control values)
Puccinia recondita; [6]
  Test E (control value class): H (H shows more than 50% of control values)
Plasmopara viticola; [7]
  Test G (control value class): H (H shows more than 50% of control values)

## Cc1cc(-c2cc(Cl)ccc2Cl)c(-c2c(F)cccc2F)n(C)c1=O [Compound 471]
Botrytis cinerea; [3]
  Test B (control value class): H (H shows more than 50% of control values)
Alternaia brassicicola; [4]
  Test C (control value class): H (H shows more than 50% of control values)
[1]; [5]
  Test D (control value class): H (H shows more than 50% of control values)
Puccinia recondita; [6]
  Test E (control value class): H (H shows more than 50% of control values)
Plasmopara viticola; [7]
  Test G (control value class): H (H shows more than 50% of control values)

## CCn1c(-c2c(F)cccc2F)c(-c2c(F)cccc2Cl)cc(Cl)c1=O [Compound 397]
Botrytis cinerea; [3]
  Test B (control value class): H (H shows more than 50% of control values)
Alternaia brassicicola; [4]
  Test C (control value class): H (H shows more than 50% of control values)
[1]; [5]
  Test D (control value class): H (H shows more than 50% of control values)
Puccinia recondita; [6]
  Test E (control value class): H (H shows more than 50% of control values)
Plasmopara viticola; [7]
  Test G (control value class): H (H shows more than 50% of control values)

## CCn1c(-c2c(F)cc(F)cc2F)c(-c2ccc(Br)cc2Cl)ccc1=O [Compound 624]
Botrytis cinerea
  Test B (control value class, gray mold on tomato): H (H shows more than 50% of control values)
Alternaia brassicicola
  Test C (control value class, Alternaria sooty spot on cabbage): H (H shows more than 50% of control values)
[1]
  Test D (control value class, powdery mildew on barley): H (H shows more than 50% of control values)
Puccinia recondita
  Test E (control value class, brown rust on wheat): H (H shows more than 50% of control values)
Plasmopara viticola; [2]
  Test G (control value class, downy mildew on vine): H (H shows more than 50% of control values)

## O=c1ccc(-c2cc(F)cc(F)c2Cl)c(-c2c(F)cccc2F)n1CC(F)F [Compound 555]
Botrytis cinerea; [3]
  Test B (control value class): H (H shows more than 50% of control values)
Alternaia brassicicola; [4]
  Test C (control value class): H (H shows more than 50% of control values)
[1]; [5]
  Test D (control value class): H (H shows more than 50% of control values)
Puccinia recondita; [6]
  Test E (control value class): H (H shows more than 50% of control values)
Plasmopara viticola; [7]
  Test G (control value class): L (L shows 50% or less of control values)

## COc1cc(F)c(-c2c(-c3cccc(OC)c3Cl)cc(Cl)c(=O)n2C)c(F)c1 [Compound 788]
Botrytis cinerea; [8]
  Test B (control value class): H (H shows more than 50% of control values)
Alternaia brassicicola; [9]
  Test C (control value class): H (H shows more than 50% of control values)
[1]; [10]
  Test D (control value class): L (L shows 50% or less of control values)
Puccinia recondita; [11]
  Test E (control value class): H (H shows more than 50% of control values)
Plasmopara viticola; [12]
  Test G (control value class): L (L shows 50% or less of control values)

## Cn1c(-c2c(F)cccc2F)c(-c2cc(OC[Si](C)(C)C)ccc2Cl)ccc1=O [Compound 261]
Botrytis cinerea; 250 ppm spray
  Test B control value (gray mold on tomato): L (L shows 50% or less of control values)
Alternaia brassicicola; 250 ppm spray
  Test C control value (Alternaria sooty spot on cabbage): H (H shows more than 50% of control values)
[1]; 250 ppm spray
  Test D control value (powdery mildew on barley): L (L shows 50% or less of control values)
Puccinia recondita; 250 ppm spray
  Test E control value (brown rust on wheat): L (L shows 50% or less of control values)
Plasmopara viticola; 7-10 days after inoculation
  Test G control value (downy mildew on vine): L (L shows 50% or less of control values)

## CCn1c(-c2c(F)cc(OC)cc2F)c(-c2cccc(F)c2F)cc(Br)c1=O [Compound 589]
Botrytis cinerea
  Test B (control value class, gray mold on tomato): H (H shows more than 50% of control values)
Alternaia brassicicola
  Test C (control value class, Alternaria sooty spot on cabbage): H (H shows more than 50% of control values)
[1]
  Test D (control value class, powdery mildew on barley): H (H shows more than 50% of control values)
Puccinia recondita
  Test E (control value class, brown rust on wheat): H (H shows more than 50% of control values)
Plasmopara viticola; [2]
  Test G (control value class, downy mildew on vine): L (L shows 50% or less of control values)

## CCn1c(-c2c(F)cc(F)cc2F)c(-c2cccc(F)c2C)ccc1=O [Compound 674]
Botrytis cinerea
  Test B (control value class, gray mold on tomato): H (H shows more than 50% of control values)
Alternaia brassicicola
  Test C (control value class, Alternaria sooty spot on cabbage): H (H shows more than 50% of control values)
[1]
  Test D (control value class, powdery mildew on barley): H (H shows more than 50% of control values)
Puccinia recondita
  Test E (control value class, brown rust on wheat): H (H shows more than 50% of control values)
Plasmopara viticola; [2]
  Test G (control value class, downy mildew on vine): H (H shows more than 50% of control values)

## CCn1c(-c2c(F)cccc2F)c(-c2cc(OC)ccc2Cl)cc(Cl)c1=O [Compound 54, 3-chloro-5-(2-chloro-5-methoxyphenyl)-6-(2,6-difluorophenyl)-1-ethylpyridine-2(1H)-one]
Botrytis cinerea; Gray mold on tomato
  Test B control value: H (H shows more than 50% of control values)
Alternaia brassicicola; Alternaria sooty spot on cabbage
  Test C control value: H (H shows more than 50% of control values)
[1]; Powdery mildew on barley
  Test D control value: H (H shows more than 50% of control values)
Puccinia recondita; Brown rust on wheat
  Test E control value: H (H shows more than 50% of control values)
Plasmopara viticola; Downy mildew on vine, 250 ppm sprayed before inoculation, 7-10 days after inoculation
  Test G control value: H (H shows more than 50% of control values)

## Cn1c(-c2c(F)cc(F)cc2F)c(-c2cc(F)cc(F)c2Cl)cc(Cl)c1=O [Compound 587]
Botrytis cinerea
  Test B (control value class, gray mold on tomato): H (H shows more than 50% of control values)
Alternaia brassicicola
  Test C (control value class, Alternaria sooty spot on cabbage): H (H shows more than 50% of control values)
[1]
  Test D (control value class, powdery mildew on barley): H (H shows more than 50% of control values)
Puccinia recondita
  Test E (control value class, brown rust on wheat): H (H shows more than 50% of control values)
Plasmopara viticola; [2]
  Test G (control value class, downy mildew on vine): L (L shows 50% or less of control values)

## CCn1c(-c2c(F)cc(OCC(F)(F)F)cc2F)c(-c2cccc(F)c2Cl)cc(Cl)c1=O [Compound 727]
Botrytis cinerea
  Test B (control value class, gray mold on tomato): H (H shows more than 50% of control values)
Alternaia brassicicola
  Test C (control value class, Alternaria sooty spot on cabbage): H (H shows more than 50% of control values)
[1]
  Test D (control value class, powdery mildew on barley): H (H shows more than 50% of control values)
Puccinia recondita
  Test E (control value class, brown rust on wheat): L (L shows 50% or less of control values)
Plasmopara viticola; [2]
  Test G (control value class, downy mildew on vine): L (L shows 50% or less of control values)
